# Variants at the floor of the assay are shown more often than the library holds them.
# B1: TPR 5TU (parent)
# chain: GGAUCUUCUCGAUCUAACAAAAAAGACAAAUCUGCCACAAAGCUUGAGAGCAUCUUCGGAUGCAGAGGCGGCAGCCUUCGGUGGCGCGAUAGCGCCAACGUUCUCAACUAUGACACGCAAAACGCGUGCUCCGUUGAAUGGAGUUUAUCAUG
# Variants of: B1
# Test: polymerase ribozyme fitness, log enrichment relative to wild type (log ratio); higher = more active; in vitro selection for triplet polymerase activity
# How it was run: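 Mutant libraries of each subunit of a heterodimeric triplet polymerase ribozyme were built by PCR and transcribed. Each library went through one round of in vitro selection in triplicate: annealing with biotinylated primer, partner subunit and triplets, frozen incubation at −7 °C, gel excision of extended constructs, streptavidin-bead capture and RT-PCR. Input and output libraries were Illumina-sequenced; only genotypes with ≥10 input reads and ≥1 read per output were kept. Fitness is log2(genotype enrichment/wild-type enrichment), using inverse-variance-weighted replicate averages.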
row,Variant,polymerase ribozyme fitness (log ratio)
1,A23U A49U A73G C96A U127G,≤ -4.2
2,A23U A49U U55A A66C G81A G133U,≤ -4.2
3,A23U A52U C93A A122U,≤ -4.2
4,A23U A60G C75U G86C A107U U144C A147G,≤ -4.2
5,A23U A66G A91C A106C U139A,≤ -4.2
6,A23U A66G G68U G140U,≤ -4.2
7,A23U A98U,≤ -4.2
8,A23U A113U,≤ -4.2
9,A23U C27A A41U C54A C57U C75U C87G C105G A121U U146G,≤ -4.2
10,A23U C27G C116G,≤ -4.2
11,A23U C27G G42U C54U G74C C96A G124A,≤ -4.2
12,A23U C35A U55G C75G C87U A97C A106U U145G,≤ -4.2
13,A23U C35U U55A A66U A97U A113U A122G U139A,≤ -4.2
14,A23U C36U C85A C96G A97U,≤ -4.2
15,A23U C43U U61G G84U A89C C108G U145A,≤ -4.2
16,A23U C51U C93U G100U C123G,≤ -4.2
17,A23U C54G C95U C118U G140U,≤ -4.2
18,A23U C72U C87G C93A,≤ -4.2
19,A23U C75A C85G C131G,≤ -4.2
20,A23U C75A C108G U145C,≤ -4.2
21,A23U C79G C123A G136U G140U,≤ -4.2
22,A23U C79U G81C G83A A113U,≤ -4.2
23,A23U C85A G128A U135A A137U A138G U146G,≤ -4.2
24,A23U C85A G128C A150C,≤ -4.2

row,Variant,polymerase ribozyme fitness (log ratio)
1,A23U C85G G141A,≤ -4.2
2,A23U C85U,-3.33
3,A23U C85U A91G G126C G140U,≤ -4.2
4,A23U C85U U151G,≤ -4.2
5,A23U C87A G133A,≤ -4.2
6,A23U C93U G94U,≤ -4.2
7,A23U C96G C123G G141C,≤ -4.2
8,A23U G25U C27G U56A C75U C96A,≤ -4.2
9,A23U G42C C54U C76A C93A U127C G133C,≤ -4.2
10,A23U G42U G68A C79U C96G G140C,≤ -4.2
11,A23U G48A G92U U101G A119G,≤ -4.2
12,A23U G50A C87G G117A U134G,≤ -4.2
13,A23U G50A C132U G140C,≤ -4.2
14,A23U G50U U102G,≤ -4.2
15,A23U G62A A64C G65U A89C,≤ -4.2
16,A23U G65A C87A U146G,≤ -4.2
17,A23U G65A G88C A106U U134G,≤ -4.2
18,A23U G68U C85U G117U,≤ -4.2
19,A23U G71C C87U U90G G100A,≤ -4.2
20,A23U G88U C116U G140U G143U U146G,≤ -4.2
21,A23U G94A,-3.99
22,A23U G140U G141U,≤ -4.2
23,A23U U33G C54U C57A G74A,≤ -4.2
24,A23U U44A G48U C76G A89G C131A U135G,≤ -4.2

row,Variant,polymerase ribozyme fitness (log ratio)
1,A23U U44A U45C C95U C105G A106C C123U A137G,≤ -4.2
2,A23U U45C A66G C85U,≤ -4.2
3,A23U U55A G84U G94C C95A,≤ -4.2
4,A23U U55A U77C C85A C96A,≤ -4.2
5,A23U U56A C76A C103G C149G,≤ -4.2
6,A23U U77A G88U G141A C149A,≤ -4.2
7,A23U U90C C93U U102G A119U G124A G133U U134C,≤ -4.2
8,A23U U148C,-4.13
9,A24C,-3.22
10,A24C A28C A30G G42A G59A A107U G112C C116U A147G,≤ -4.2
11,A24C A29C A47U C57A U82A G84A A121U,≤ -4.2
12,A24C A29C G100U U109G A120G,≤ -4.2
13,A24C A37C C72U G92A A119U C125A,≤ -4.2
14,A24C A37U A40C G46C C75A C116U A138C,≤ -4.2
15,A24C A39G A47U U55G G92C,≤ -4.2
16,A24C A40U U55A U104C G126U U139A,≤ -4.2
17,A24C A41C G84U G88A G94C A110G,≤ -4.2
18,A24C A49C C51U C85U U101A G117C G133U,≤ -4.2
19,A24C A49C G81A G124U,≤ -4.2
20,A24C A49C G84A A97C U130G A137U,≤ -4.2
21,A24C A49C G84A U109G G133A U144A,≤ -4.2
22,A24C A60G G62C G86A,≤ -4.2
23,A24C A73U C79U G88U G126A,≤ -4.2
24,A24C A89C G92C G140A,≤ -4.2

row,Variant,polymerase ribozyme fitness (log ratio)
1,A24C C27A A30G U90A G117U A121G,≤ -4.2
2,A24C C27A G42A C69U G71U U146A,≤ -4.2
3,A24C C27G G94A A106G C108U,-3.93
4,A24C C27U C54G G94U A106C,≤ -4.2
5,A24C C27U U61A A91C A106G G141A,≤ -4.2
6,A24C C32A C76U G83A G94C A107U A138G G140A,≤ -4.2
7,A24C C32G A37C G58A G59C A60C C85U C87G C116U A138G,≤ -4.2
8,A24C C32G C43G C87G U104G A115C,≤ -4.2
9,A24C C35U G62C C95U C96A,≤ -4.2
10,A24C C38U C69U G80A C87A G140A G143A,≤ -4.2
11,A24C C43U U55A G59A C93A G117U U135C G136C,≤ -4.2
12,A24C C51U C105G,≤ -4.2
13,A24C C54G C76U U78A C105A A147C,≤ -4.2
14,A24C C54U C87U A150C,≤ -4.2
15,A24C C72A C103A U109G G126U,≤ -4.2
16,A24C C76G A106G A122G G140U,≤ -4.2
17,A24C C93U,≤ -4.2
18,A24C C93U C103G,≤ -4.2
19,A24C C123A,≤ -4.2
20,A24C G34A C87A G126U,-4.18
21,A24C G42C G92U C125G,≤ -4.2
22,A24C G48C G81U G94A,≤ -4.2
23,A24C G50C C96G A110U,≤ -4.2
24,A24C G50U U55C C72U C76U A110U U146A,≤ -4.2

row,Variant,polymerase ribozyme fitness (log ratio)
1,A24C G58C A150G,≤ -4.2
2,A24C G67C G92U C99U U109G A110U,≤ -4.2
3,A24C G68U C75G C76G A110G A121U,≤ -4.2
4,A24C G74C U90G C99G U127A,≤ -4.2
5,A24C G84U C114G,≤ -4.2
6,A24C G86C G143A U148C,≤ -4.2
7,A24C G86U U90A U101A A106G A113U A120U G126A,≤ -4.2
8,A24C U45A C57U G84A,≤ -4.2
9,A24C U45A G50U C51U C75G C85G G126U G140U,≤ -4.2
10,A24C U55A G65A C99A,≤ -4.2
11,A24C U55A G88A C96A A119C G143C,≤ -4.2
12,A24C U56C G88C A89C U127A,≤ -4.2
13,A24C U77G,≤ -4.2
14,A24G,-1.75
15,A24G A26C U56G C72U C108G C129A G140C U146C,≤ -4.2
16,A24G A26U A40C U44A C79U G86A U102A U130G A137C,≤ -4.2
17,A24G A26U G58U G83A G92A C93U C105G A142C,≤ -4.2
18,A24G A29G G46U,≤ -4.2
19,A24G A29U U31G U90C G141C,≤ -4.2
20,A24G A30G A47U A52C A60C C76A G100A C114A C118G G140A,≤ -4.2
21,A24G A30G G152A,≤ -4.2
22,A24G A30U U31C U101G,-3.98
23,A24G A39G G67U G83A C85A U104G C105U G136A,≤ -4.2
24,A24G A39U G88C C132A G140C,≤ -4.2

row,Variant,polymerase ribozyme fitness (log ratio)
1,A24G A40C U90C U127G A142G G143C,≤ -4.2
2,A24G A52C G58C G59C G65A G80C C96U U101G G140U G141U,≤ -4.2
3,A24G A73G G86A G141U U145A A150U,≤ -4.2
4,A24G A137G,≤ -4.2
5,A24G C27A U77G C114G A119G U127G,≤ -4.2
6,A24G C27G A73C U78A C99U C116U C129G,≤ -4.2
7,A24G C32A U33G G65A G80A A98U G126C U145G A147C,≤ -4.2
8,A24G C35U G48U A52U C125A,≤ -4.2
9,A24G C38G G42C A66G C93A A138C,≤ -4.2
10,A24G C57U G59C C96A G117A,≤ -4.2
11,A24G C69A A91U A138U G143U,≤ -4.2
12,A24G C87A,≤ -4.2
13,A24G C87G,≤ -4.2
14,A24G C93G,≤ -4.2
15,A24G C93U,-3.49
16,A24G G25C A49U G84A U102G,≤ -4.2
17,A24G G25U A29U C32A C54U G94C C131G,≤ -4.2
18,A24G G42C G59U C96A C99A C132U,≤ -4.2
19,A24G G42U C72A A91U G92A U102G G136U,≤ -4.2
20,A24G G50A G80U G88A,≤ -4.2
21,A24G G50C A52U A66U C75G U134G,≤ -4.2
22,A24G G62U G94A C116G A120U U127A U135C,≤ -4.2
23,A24G G70C,≤ -4.2
24,A24G G94C,-3.21

row,Variant,polymerase ribozyme fitness (log ratio)
1,A24G U31A C51U U148G,≤ -4.2
2,A24G U31C G88A,≤ -4.2
3,A24G U33G G71A C87G C93G C96A A98G A137G,≤ -4.2
4,A24G U44G,≤ -4.2
5,A24G U55A G80A G94A,≤ -4.2
6,A24G U56A A137U,≤ -4.2
7,A24G U56A G65C C85U G143U,≤ -4.2
8,A24G U61G C85A U101C A106U C116G,≤ -4.2
9,A24U A26U C54U G84U U127A,≤ -4.2
10,A24U A26U G84A A119G G141U U144G,≤ -4.2
11,A24U A26U U55C A91G,≤ -4.2
12,A24U A28C C35A C38G C79G G84C C116A C123G U144C,≤ -4.2
13,A24U A28G C36U G62A U78G G83A A91G G128C,-3.66
14,A24U A28U C35U G46U A98U C114U A119G U135C,≤ -4.2
15,A24U A28U C43A A49G G62C C87G G124U,≤ -4.2
16,A24U A28U C79G A91U A97U C116U C132U U135A,≤ -4.2
17,A24U A29C C36A A47U G80A C93A C103A,≤ -4.2
18,A24U A29U G48A,≤ -4.2
19,A24U A29U G86U A137U G141A,≤ -4.2
20,A24U A30C C93G C118A,≤ -4.2
21,A24U A30U U77C U144A,≤ -4.2
22,A24U A37C C132U A137G,≤ -4.2
23,A24U A37C G58A C69U C72A C85A C118A,≤ -4.2

# Reference: the RNAGym collection of RNA variant scans (doi:10.1073/pnas.2313332121)
